Experimental data reported in the supplement of paper PMC10369915.
The list shows a part of the results. Cut-off read from the data, not from the text of the source: active = 3.2 or more and inactive = the rest. Only a few entries rise above the background.

B1: JAGN1_Y42_H44Y_YF (peptide)
chain: IKKLIYVFLVI
B2: JAK2_Y934 (peptide)
chain: MEYLPYGSLRD
B3: JUP_Y22 (peptide)
chain: QQTYTYDSGIH
B4: JAK2_Y934_Y931C (peptide)
chain: MECLPYGSLRD
B5: ITGB7_Y758 (peptide)
chain: YDRREYSRFEK
B6: ITGA3_Y237_S235P_YF (peptide)
chain: WDLPEYSFKDP
B7: JUP_Y701_M697L_YF (peptide)
chain: DLDATYRPMFS
B8: JMJD1C_Y596_M591V (peptide)
chain: VEKEKYVSYIS
B9: ITGB3_Y773_S778P (peptide)
chain: ANNPLYKEATP
B10: JAK2_Y373_A377E (peptide)
chain: LIDGYYRLTED
B11: ITGA2B_Y845_L847P (peptide)
chain: PSDLLYIPDIQ
B12: ITGB7_Y758_Y753H (peptide)
chain: HDRREYSRFEK
B13: KANK1_Y324_K321R (peptide)
chain: VRRRSYSAGNA
B14: KANSL1_Y223 (peptide)
chain: EHTTLYSNNST
B15: ITGAE_Y549_YF (peptide)
chain: EEGRVYVFRLS
B16: ITGB2_Y125_D128Y (peptide)
chain: RRAKGYPIYLY
B17: ITGB3BP_Y32_I30V (peptide)
chain: KSVVTYSPTTG
B18: KANSL1_Y223_N225D (peptide)
chain: EHTTLYSDNST
B19: JUP_Y22_T19I_YF (peptide)
chain: QQIFTYDSGIH
B20: JAK2_Y372 (peptide)
chain: SLIDGYYRLTA
B21: ITGB3_Y773 (peptide)
chain: ANNPLYKEATS
B22: ITK_Y336_R335W (peptide)
chain: VTRLWYPVCFG
B23: JAK2_Y934_YF (peptide)
chain: MEFLPYGSLRD
B24: ITGA7_Y458 (peptide)
chain: GKVFIYHGSSL
B25: JUP_Y693 (peptide)
chain: PINEPYGDDMD
B26: ITGB3_Y773_A776V (peptide)
chain: ANNPLYKEVTS
B27: ITGB7_Y753 (peptide)
chain: LSVEIYDRREY
B28: JAK2_Y613_V617I (peptide)
chain: HLVLNYGVCIC
B29: JAK2_Y931_Y931C_YF (peptide)
chain: KLIMECLPFGS
B30: ITSN1_Y1132_S1137N (peptide)
chain: WFPANYVKLLN
B31: JAK2_Y373_A377E_YF (peptide)
chain: LIDGFYRLTED
B32: JAK2_Y382_A377E (peptide)
chain: EDAHHYLCKEV
B33: KANSL1_Y223_T221I (peptide)
chain: EHTILYSNNST
B34: JAK2_Y613 (peptide)
chain: HLVLNYGVCVC
B35: JUP_Y20_T19I (peptide)
chain: EWQQIYTYDSG
B36: JAGN1_Y42 (peptide)
chain: IKKLIYVHLVI
B37: JAK2_Y931 (peptide)
chain: KLIMEYLPYGS

Each binder was assayed against SHP2 C-SH2 domain E139D (assay: enrichment score (SH2-bound / input frequency) (ratio); bacterial display of known human phosphotyrosine sites (pTyr-Var adds point mutants) read by sequencing; higher = stronger binding; tyrosines were phosphorylated by kinases first). Settings: peptide library: pTyr-Var.
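Note: displayed peptides selected on beads carrying the immobilized SH2 domain, with library peptides lacking any tyrosine serving as negative controls.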

Binder	enrichment score
B1	inactive: 1.99
B2	inactive: 0.78
B3	inactive: 0.596
B4	inactive: 0.814
B5	inactive: 0.629
B6	inactive: 1.61
B7	inactive: 0.668
B8	inactive: 0.761
B9	inactive: 0.757
B10	inactive: 0.994
B11	inactive: 1.33
B12	inactive: 0.704
B13	inactive: 0.226
B14	inactive: 0.827
B15	inactive: 0.909
B16	inactive: 0.377
B17	inactive: 0.671
B18	inactive: 0.44
B19	inactive: 0.976

Binder	enrichment score
B20	inactive: 1.24
B21	inactive: 0.801
B22	inactive: 1.23
B23	inactive: 0.893
B24	inactive: 1.19
B25	inactive: 0.404
B26	inactive: 0.562
B27	inactive: 0.845
B28	inactive: 1.78
B29	inactive: 1.02
B30	inactive: 1.25
B31	inactive: 0.865
B32	inactive: 1.54
B33	inactive: 1.02
B34	inactive: 1.59
B35	inactive: 1.23
B36	inactive: 0.811
B37	inactive: 1.22

Each binder was assayed against SHP2 C-SH2 domain wild-type in the same assay as above. Settings: peptide library: pTyr-Var.

Binder	enrichment score
B1	inactive: 1.77
B2	inactive: 1.27
B3	inactive: 0.677
B4	inactive: 1.06
B5	inactive: 0.511
B6	inactive: 1.93
B7	inactive: 0.565
B8	inactive: 0.845
B9	inactive: 0.715
B10	inactive: 2.77
B11	inactive: 1.03
B12	inactive: 0.626
B13	inactive: 0.283
B14	inactive: 0.758
B15	inactive: 0.791
B16	inactive: 0.267
B17	inactive: 0.651
B18	inactive: 0.651
B19	inactive: 1.16

Binder	enrichment score
B20	inactive: 2.67
B21	inactive: 0.754
B22	inactive: 1.54
B23	inactive: 0.916
B24	inactive: 0.986
B25	inactive: 0.377
B26	inactive: 0.618
B27	inactive: 0.787
B28	inactive: 2.47
B29	inactive: 1.15
B30	inactive: 2.89
B31	inactive: 0.695
B32	inactive: 1.35
B33	inactive: 0.927
B34	inactive: 1.86
B35	inactive: 1.25
B36	inactive: 0.794
B37	inactive: 1.11

Each binder was assayed against SHP2 N-SH2 domain L43F in the same assay as above. Settings: peptide library: pTyr-Var.

Binder	enrichment score
B1	inactive: 1.64
B2	inactive: 0.814
B3	inactive: 0.575
B4	inactive: 0.948
B5	inactive: 0.594
B6	inactive: 2.45
B7	inactive: 0.74
B8	inactive: 0.727
B9	inactive: 0.492
B10	inactive: 0.841
B11	inactive: 1.15
B12	inactive: 0.669
B13	inactive: 0.207
B14	inactive: 0.526
B15	inactive: 0.694
B16	inactive: 0.245
B17	inactive: 0.564
B18	inactive: 0.309
B19	inactive: 0.848

Binder	enrichment score
B20	inactive: 1.34
B21	inactive: 0.62
B22	inactive: 1.42
B23	inactive: 1.24
B24	inactive: 1.6
B25	inactive: 0.335
B26	inactive: 0.767
B27	inactive: 0.658
B28	inactive: 0.995
B29	inactive: 1.11
B30	inactive: 1.72
B31	inactive: 1.02
B32	inactive: 0.962
B33	inactive: 0.735
B34	inactive: 1.26
B35	inactive: 1.54
B36	inactive: 0.863
B37	inactive: 1.21

These binders were tested against SHP2 N-SH2 domain T42A in the same assay as above. Settings: peptide library: pTyr-Var.

Binder	enrichment score
B1	inactive: 1.5
B2	inactive: 0.787
B3	inactive: 0.615
B4	inactive: 0.783
B5	inactive: 0.557
B6	inactive: 1.39
B7	inactive: 0.565
B8	inactive: 0.664
B9	inactive: 0.64
B10	inactive: 1.03
B11	inactive: 0.85
B12	inactive: 0.699
B13	inactive: 0.192
B14	inactive: 0.682
B15	inactive: 0.726
B16	inactive: 0.312
B17	inactive: 0.644
B18	inactive: 0.33
B19	inactive: 1.01

Binder	enrichment score
B20	inactive: 1.09
B21	inactive: 0.754
B22	inactive: 1.17
B23	inactive: 0.87
B24	inactive: 1.17
B25	inactive: 0.333
B26	inactive: 0.55
B27	inactive: 0.621
B28	inactive: 1.46
B29	inactive: 0.708
B30	inactive: 2.98
B31	inactive: 0.852
B32	inactive: 0.927
B33	inactive: 1.97
B34	inactive: 1.86
B35	inactive: 0.816
B36	inactive: 0.743
B37	inactive: 1.31

Each binder was assayed against SHP2 N-SH2 domain T52S in the same assay as above. Settings: peptide library: pTyr-Var.

Binder	enrichment score
B1	inactive: 2
B2	inactive: 0.892
B3	inactive: 0.724
B4	inactive: 0.682
B5	inactive: 0.607
B6	inactive: 1.81
B7	inactive: 0.744
B8	inactive: 0.773
B9	inactive: 0.597
B10	inactive: 1.18
B11	inactive: 0.83
B12	inactive: 0.537
B13	inactive: 0.238
B14	inactive: 0.556
B15	inactive: 0.807
B16	inactive: 0.174
B17	inactive: 0.544
B18	inactive: 0.444
B19	inactive: 0.996

Binder	enrichment score
B20	inactive: 1.22
B21	inactive: 0.636
B22	inactive: 1.35
B23	inactive: 1.26
B24	inactive: 1.67
B25	inactive: 0.413
B26	inactive: 0.8
B27	inactive: 0.838
B28	inactive: 1.09
B29	inactive: 1.07
B30	inactive: 1.43
B31	inactive: 1.1
B32	inactive: 1.25
B33	inactive: 0.636
B34	inactive: 1.12
B35	inactive: 1.17
B36	inactive: 0.76
B37	inactive: 1.25

Each binder was assayed against SHP2 N-SH2 domain wild-type in the same assay as above. Settings: peptide library: pTyr-Var.

Binder	enrichment score
B1	inactive: 1.78
B2	inactive: 1.13
B3	inactive: 0.905
B4	inactive: 1.03
B5	inactive: 0.589
B6	inactive: 1.84
B7	inactive: 0.75
B8	inactive: 0.864
B9	inactive: 0.891
B10	inactive: 0.939
B11	inactive: 0.815
B12	inactive: 1.06
B13	inactive: 0.215
B14	inactive: 0.881
B15	inactive: 0.796
B16	inactive: 0.364
B17	inactive: 0.719
B18	inactive: 0.497
B19	inactive: 0.717

Binder	enrichment score
B20	inactive: 1.12
B21	inactive: 0.684
B22	inactive: 1.69
B23	inactive: 1.2
B24	inactive: 1.12
B25	inactive: 0.391
B26	inactive: 0.791
B27	inactive: 1.11
B28	inactive: 2.22
B29	inactive: 1.39
B30	inactive: 1.42
B31	inactive: 1.03
B32	inactive: 1.2
B33	inactive: 1.13
B34	inactive: 1.61
B35	inactive: 1.11
B36	inactive: 0.965
B37	inactive: 1.18
